US20210238308A1 (Chugai, published 2021)

T1: PRYSPRY domain of human TRIM21 with N-terminal 6xHis tag (human)
T1 construct: Expressed in E. coli; also called hTRIM21; human TRIM21.PRYSPRY
T1 chain: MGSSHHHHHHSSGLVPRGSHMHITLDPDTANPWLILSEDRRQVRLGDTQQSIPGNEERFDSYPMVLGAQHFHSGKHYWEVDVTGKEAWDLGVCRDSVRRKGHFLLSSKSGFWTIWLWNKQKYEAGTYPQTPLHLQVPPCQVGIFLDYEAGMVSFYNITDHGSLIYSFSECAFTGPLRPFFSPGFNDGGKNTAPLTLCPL

T2: PRYSPRY domain of mouse TRIM21 with N-terminal 6xHis tag (mouse)
T2 construct: Expressed in E. coli; also called mTRIM21; mouse TRIM21.PRYSPRY
T2 chain: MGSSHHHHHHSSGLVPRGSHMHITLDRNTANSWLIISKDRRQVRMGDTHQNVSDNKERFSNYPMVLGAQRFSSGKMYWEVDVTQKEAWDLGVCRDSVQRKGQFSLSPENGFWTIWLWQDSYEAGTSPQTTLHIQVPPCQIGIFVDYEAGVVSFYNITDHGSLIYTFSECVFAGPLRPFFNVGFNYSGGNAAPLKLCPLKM

B1: MRAH-G1d/MRAL-KT0 H435N (antibody, human IgG1, kappa)
heavy: QVQLQESGPGLVRPSQTLSLTCTVSGYSITSDHAWSWVRQPPGRGLEWIGYISYSGITTYNPSLKSRVTMLRDTSKNQFSLRLSSVTAADTAVYYCARSLARTTAMDYWGQGSLVTVSS[human IgG1 constant region with H435N (EU numbers) omitted here]
light: DIQMTQSPSSLSASVGDRVTITCRASQDISSYLNWYQQKPGKAPKLLIYYTSRLHSGVPSRFSGSGSGTDFTFTISSLQPEDIATYYCQQGNTLPYTFGQGTKVEIKRTVAAPSVFIFPPSDEQLKSGTASVVCLLNNFYPREAKVQWKVDNALQSGNSQESVTEQDSKDSTYSLSSTLTLSKADYEKHKVYACEVTHQGLSSPVTKSFNRGEC
notes: copies: 2 + 2
B2: MRAH-G1d/MRAL-KT0 L309I (antibody, human IgG1, kappa)
heavy: QVQLQESGPGLVRPSQTLSLTCTVSGYSITSDHAWSWVRQPPGRGLEWIGYISYSGITTYNPSLKSRVTMLRDTSKNQFSLRLSSVTAADTAVYYCARSLARTTAMDYWGQGSLVTVSS[human IgG1 constant region with L309I (EU numbers) omitted here]
light: B1 light
notes: copies: 2 + 2
B3: MRAH-G1d/MRAL-KT0 L309T (antibody, human IgG1, kappa)
heavy: QVQLQESGPGLVRPSQTLSLTCTVSGYSITSDHAWSWVRQPPGRGLEWIGYISYSGITTYNPSLKSRVTMLRDTSKNQFSLRLSSVTAADTAVYYCARSLARTTAMDYWGQGSLVTVSS[human IgG1 constant region with L309T (EU numbers) omitted here]
light: B1 light
notes: copies: 2 + 2
B4: MRAH-G1d/MRAL-KT0 L309G (antibody, human IgG1, kappa)
heavy: QVQLQESGPGLVRPSQTLSLTCTVSGYSITSDHAWSWVRQPPGRGLEWIGYISYSGITTYNPSLKSRVTMLRDTSKNQFSLRLSSVTAADTAVYYCARSLARTTAMDYWGQGSLVTVSS[human IgG1 constant region with L309G (EU numbers) omitted here]
light: B1 light
notes: copies: 2 + 2
B5: MRAH-G1d/MRAL-KT0 L309K (antibody, human IgG1, kappa)
heavy: QVQLQESGPGLVRPSQTLSLTCTVSGYSITSDHAWSWVRQPPGRGLEWIGYISYSGITTYNPSLKSRVTMLRDTSKNQFSLRLSSVTAADTAVYYCARSLARTTAMDYWGQGSLVTVSS[human IgG1 constant region with L309K (EU numbers) omitted here]
light: B1 light
notes: copies: 2 + 2
B6: MRAH-G1d/MRAL-KT0 H435T (antibody, human IgG1, kappa)
heavy: QVQLQESGPGLVRPSQTLSLTCTVSGYSITSDHAWSWVRQPPGRGLEWIGYISYSGITTYNPSLKSRVTMLRDTSKNQFSLRLSSVTAADTAVYYCARSLARTTAMDYWGQGSLVTVSS[human IgG1 constant region with H435T (EU numbers) omitted here]
light: B1 light
notes: copies: 2 + 2
B7: MRAH-G1d/MRAL-KT0 L309R (antibody, human IgG1, kappa)
heavy: QVQLQESGPGLVRPSQTLSLTCTVSGYSITSDHAWSWVRQPPGRGLEWIGYISYSGITTYNPSLKSRVTMLRDTSKNQFSLRLSSVTAADTAVYYCARSLARTTAMDYWGQGSLVTVSS[human IgG1 constant region with L309R (EU numbers) omitted here]
light: B1 light
notes: copies: 2 + 2
B8: MRAH-G1d/MRAL-KT0 L314A (antibody, human IgG1, kappa)
heavy: QVQLQESGPGLVRPSQTLSLTCTVSGYSITSDHAWSWVRQPPGRGLEWIGYISYSGITTYNPSLKSRVTMLRDTSKNQFSLRLSSVTAADTAVYYCARSLARTTAMDYWGQGSLVTVSS[human IgG1 constant region with L314A (EU numbers) omitted here]
light: B1 light
notes: copies: 2 + 2
B9: MRAH-G1d/MRAL-KT0 L309W (antibody, human IgG1, kappa)
heavy: QVQLQESGPGLVRPSQTLSLTCTVSGYSITSDHAWSWVRQPPGRGLEWIGYISYSGITTYNPSLKSRVTMLRDTSKNQFSLRLSSVTAADTAVYYCARSLARTTAMDYWGQGSLVTVSS[human IgG1 constant region with L309W (EU numbers) omitted here]
light: B1 light
notes: copies: 2 + 2
B10: MRAH-G1d/MRAL-KT0 L314D (antibody, human IgG1, kappa)
heavy: QVQLQESGPGLVRPSQTLSLTCTVSGYSITSDHAWSWVRQPPGRGLEWIGYISYSGITTYNPSLKSRVTMLRDTSKNQFSLRLSSVTAADTAVYYCARSLARTTAMDYWGQGSLVTVSS[human IgG1 constant region with L314D (EU numbers) omitted here]
light: B1 light
notes: copies: 2 + 2
B11: MRAH-G1d/MRAL-KT0 L309N (antibody, human IgG1, kappa)
heavy: QVQLQESGPGLVRPSQTLSLTCTVSGYSITSDHAWSWVRQPPGRGLEWIGYISYSGITTYNPSLKSRVTMLRDTSKNQFSLRLSSVTAADTAVYYCARSLARTTAMDYWGQGSLVTVSS[human IgG1 constant region with L309N (EU numbers) omitted here]
light: B1 light
notes: copies: 2 + 2
B12: MRAH-G1d/MRAL-KT0 L309D (antibody, human IgG1, kappa)
heavy: QVQLQESGPGLVRPSQTLSLTCTVSGYSITSDHAWSWVRQPPGRGLEWIGYISYSGITTYNPSLKSRVTMLRDTSKNQFSLRLSSVTAADTAVYYCARSLARTTAMDYWGQGSLVTVSS[human IgG1 constant region with L309D (EU numbers) omitted here]
light: B1 light
notes: copies: 2 + 2
B13: MRAH-G1d/MRAL-KT0 L309F (antibody, human IgG1, kappa)
heavy: QVQLQESGPGLVRPSQTLSLTCTVSGYSITSDHAWSWVRQPPGRGLEWIGYISYSGITTYNPSLKSRVTMLRDTSKNQFSLRLSSVTAADTAVYYCARSLARTTAMDYWGQGSLVTVSS[human IgG1 constant region with L309F (EU numbers) omitted here]
light: B1 light
notes: copies: 2 + 2

Biological target: T1, PRYSPRY domain of human TRIM21 with …
Test: SPR, Protein L capture

hTRIM21 binding level ratio (variant/control antibody)	Binder
-0.021	B1
0.849	B2
1.18	B3
0.93	B4
0.988	B5
-0.021	B6
0.924	B7
0.717	B8
0.907	B9
0.724	B10
0.963	B11
0.209	B12
0.885	B13

Biological target: T2, PRYSPRY domain of mouse TRIM21 with …
Test: SPR, Protein L capture

mTRIM21 binding level ratio (variant/control antibody)	Binder
1.15	B1
1.71	B2
2.83	B3
1.92	B4
2.44	B5
1.59	B6
2.51	B7
2.31	B8
2.19	B9
0.727	B10
2.38	B11
1.04	B12
2.12	B13

Each binder was assayed against T3, human FcRn (human, UniProt P55899 part only; P61769 part only, limits assumed) (assay: SPR, Protein L capture).
T3 construct: also called hFcRn

hFcRn binding level ratio (variant/control antibody)	Binder
0.23	B1
0.87	B2
0.73	B3
1.2	B4
0.16	B5
0.02	B6
0.26	B7
0.01	B8
1.05	B9
0.01	B10
0.32	B11
0.41	B12
0.78	B13
